Source: PubChem BioAssay AID686978 (National Center for Advancing Translational Sciences (NCATS), 2013)
The campaign covered roughly 420,000 compounds. About 64,000 (15%) were called active. Inconclusive means that the source gave no clear call. Such entries were picked first, then a sample of the others. The call rests on the fitted dose curve; in most records, active means well fitted inhibition curve with a large enough effect; inconclusive means small, poorly fitted or top-dose-only effect; inactive means flat fitted curve, though single readings scatter. Potencies of inconclusive entries are left out as doubtful fits.
On the % scale 0 is the no-effect control and ±100 the full control effect; potency means the concentration at half of the fitted maximal effect; tags describe the fitted curve by direction and shape.

Assay: qHTS for Inhibitors of human tyrosyl-DNA phosphodiesterase 1 (TDP1): qHTS in cells in absence of CPT; further: nearly all actives have a fitted effect of over 55% in size
Settings: DT40 Tdp1-/- hTDP1 cells, no CPT, ATP luminescence, 48 h; activity change, negative = growth inhibition: at 46.2 µM (top of the series) unless noted
How it was run: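 Growth of hTDP1-complemented DT40 Tdp1-knockout cells is measured by ATP luminescence after at least 48 hr compound exposure at 37 °C, with DMSO substituting for the 20 nM CPT used in the parallel screen.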
With `O=C(COc1ccc(S(=O)(=O)N2CCCC2)cc1)NCC1CCCO1` (stereo unspecified) the Potency was “inactive”.
With `Cc1ccc(NC(=O)C2CC(=O)N(c3ccccc3Cl)C2)cc1S(=O)(=O)N1CCOCC1` (stereo unspecified) the Potency was inconclusive [inhibitor, full curve, poor fit].
In the case of `Cc1c(C(=O)NCc2ccc(F)cc2)sc(=O)n1Cc1ccccc1F`, the Potency is reported as inconclusive [inhibitor, single point].
In the case of `Cc1cccc(NC(=O)c2ccccc2O)c1C`, the Potency is reported as inconclusive [inhibitor, single point].
For `Cn1nc(C(C)(C)C)cc1C(=O)O`, the Potency was “inactive”.
In the case of `O=C(COc1ccc(-c2ccccc2)cc1)N1CCCC1`, the Potency is reported as inconclusive [inhibitor, single point].
With `O=C(c1ccco1)N(Cc1cccc(Br)c1)C1CCS(=O)(=O)C1` (stereo unspecified) the Potency was “inactive”.
With `O=C1c2ccccc2C(=O)N1CCC(O)C[N+](=O)[O-]` (stereo unspecified) the Potency was “inactive”.
In the case of `Cc1ccc(C(=O)CCCn2nnc(-c3cccnc3)n2)cc1C`, the Potency is reported as inconclusive [inhibitor, partial curve].
For `CCN(CC)C(=O)c1sc2c(c1C)c(=O)n(-c1ccccc1)c(=O)n2Cc1c(C)cc(C)cc1C`, the Potency was inconclusive [inhibitor, single point].
For `COc1ccc(-c2cn3nc(N4CCC(C(=O)Nc5ccccc5OC)CC4)sc3n2)cc1`, the Potency was inconclusive [inhibitor, full curve].
With `O=[N+]([O-])c1cc(Br)c(O)c(C=Nc2ccc(N3CCOCC3)cc2)c1` the Potency was inconclusive [inhibitor, single point].
For `CC(C)C(NS(=O)(=O)c1ccc2c(c1)oc(=O)n2C)C(=O)N1CCN(c2cccc(Cl)c2)CC1` (stereo unspecified), the Potency was inconclusive [inhibitor, single point].
For `CCc1c(C(=O)N/N=C/c2cccs2)nnn1-c1nonc1N`, the Potency was inconclusive [inhibitor, single point].
In the case of `O=C(NC(=S)Nc1ccc2c(c1)OCCO2)c1cccc(Br)c1`, the Potency is reported as inconclusive [inhibitor, single point].
In the case of `COc1ccccc1Nc1nnc(SCC(=O)NC(=O)Nc2ccc3c(c2)OCCO3)s1`, the Potency is reported as inconclusive [inhibitor, partial curve].
In the case of `Cc1nc2sc(C(c3cccs3)N3CCN(c4cccc(Cl)c4)CC3)c(O)n2n1` (stereo unspecified), the Potency is reported as inconclusive [inhibitor, single point].
In the case of `COc1cc(=O)n2c(c1C(=O)NC(C)c1ccco1)CCN(Cc1ccccc1C(F)(F)F)CC2` (stereo unspecified), the Potency is reported as inconclusive [inhibitor, single point].
For `CCN(CC)C(=O)c1ccc2c(c1)N(Cc1c(F)cccc1Cl)C(=O)c1ccccc1S2`, the Potency was inconclusive [inhibitor, single point].
With `Cc1nc(NCCc2cnc[nH]2)c2oc3ccccc3c2n1` the Potency was “inactive”.
In the case of `CCOC(=O)CN(C(=O)COc1nc(C)cc(C)c1C#N)c1ccc(F)cc1`, the activity change, negative = growth inhibition is reported as inconclusive: -33% [inhibitor].
With `COc1cccc(-c2nnc(-c3ccc(C(F)(F)F)cc3)o2)c1OC` the Potency was active: 20.6 µM.
For `COc1ccc(S(=O)(=O)N2CCCC2C(=O)NCc2ccccc2Cl)cc1` (stereo unspecified), the Potency was inconclusive [inhibitor, single point].
For `COc1ccc(OC)c(/C=C/C(=O)Nc2ccc3c(c2)CCC3)c1`, the Potency was inconclusive [inhibitor, single point].
For `CC1CCN(C(=O)C2CCCN(c3ncnc4c3nc3n4CCCCC3)C2)CC1` (stereo unspecified), the Potency was inconclusive [inhibitor, single point].
In the case of `CN(C)CCNc1c(N)c(=O)oc2ccccc12`, the Potency is reported as inconclusive [inhibitor, single point].
With `Cc1cccc(NC(=O)CN2CCN(C(=O)c3cccc(-n4cnnn4)c3)CC2)c1C` the Potency was “inactive”.
For `Cc1ccc(S(=O)(=O)N2CCOCC2)cc1C(=O)OCc1nnc(-c2ccccc2)o1`, the Potency was inconclusive [inhibitor, partial curve, poor fit].
With `Cc1nn(Cc2ccccc2)c(Cl)c1C(=O)NCc1ccc(C)n1C` the Potency was “inactive”.
In the case of `COC(=O)Cn1c(=NC(=O)c2ccc3c(c2)OCCO3)sc2ccccc21`, the Potency is reported as “inactive”.
In the case of `Cc1ccn2c(Nc3c(C)cccc3C)c(-c3ccsc3)nc2c1`, the Potency is reported as active: 23.1 µM.
With `CCCC(C(=O)Nc1cccc(S(=O)(=O)N2CCCC2)c1)c1ccccc1` (stereo unspecified) the Potency was active: 20.6 µM.
For `COc1cccc(C(=O)c2ccccc2C(=O)O)c1`, the Potency was “inactive”.
In the case of `O=[N+]([O-])c1cccc(-c2ccc(C(=S)N3CCN(c4ccccc4)CC3)o2)c1`, the Potency is reported as inconclusive [inhibitor, single point].
In the case of `O=C(NCc1ccccn1)[C@H]1C[C@@H]1[C@H](NP(=O)(c1ccccc1)c1ccccc1)c1ccccc1`, the Potency is reported as inconclusive [inhibitor, single point].
For `CCn1c(SCC(=O)N(C)C)nc2cc(S(=O)(=O)N3CCOCC3)ccc21`, the Potency was “inactive”.
For `O=C(Nc1ccccc1Cl)c1cc(S(=O)(=O)N2CCCCC2)ccc1N1CCOCC1`, the Potency was active: 23.1 µM.
With `CC1(c2nc3ccccc3[nH]2)c2ccccc2C(=O)N1C1CC1` (stereo unspecified) the Potency was “inactive”.
For `COc1ccc(C(=O)Nc2ccccc2C(=O)NCCN2CCOCC2)cc1`, the Potency was “inactive”.
For `Clc1ccc(-n2ncc3c(NCc4cccnc4)ncnc32)cc1Cl`, the Potency was inconclusive [inhibitor, single point].
In the case of `C=CC(COCc1ccccc1)N(Cc1ccc(OC)cc1)S(=O)(=O)c1ccccc1Br` (stereo unspecified), the Potency is reported as inconclusive [inhibitor, single point].
With `Cn1cnnc1Sc1cc(N2CCN(S(=O)(=O)c3ccccc3)CC2)ccc1[N+](=O)[O-]` the Potency was inconclusive [inhibitor, single point].
For `CC1(C)CC(=O)c2cc(C(=O)N3CCCC(C)(C)C3)c(=O)n(-c3ccccc3)c2C1`, the activity change, negative = growth inhibition was inconclusive: -30.1% [inhibitor].
For `CCN(CC(=O)NCc1ccc(Cl)cc1)C(=O)CCC(=O)c1ccc(F)cc1`, the Potency was inconclusive [inhibitor, single point].
With `O=C(CSc1nc(=O)[nH]c2c1CCCC2)Nc1ccc(Cl)c(Cl)c1` the Potency was inconclusive [inhibitor, single point].
For `CCOc1ccccc1N1CCN(C(=O)CSc2ccc3c(c2)OCCO3)CC1`, the Potency was inconclusive [inhibitor, partial curve].
In the case of `Cc1ccc(-n2nc(C(=O)Nc3ccc(F)cc3Cl)c(=O)n(C)c2=O)cc1`, the Potency is reported as “inactive”.
With `Cc1nn(C)c(Cl)c1CN1CCC(n2nccc2NC(=O)C2CCCC2)CC1` the Potency was “inactive”.
For `CCCCNc1nc(-c2ccccc2)nc(-n2ccnc2)n1`, the Potency was inconclusive [inhibitor, partial curve, poor fit].
In the case of `CCC(C)N1CC(=O)N2Cc3[nH]c4ccccc4c3C[C@H]2C1=O` (stereo partly specified), the Potency is reported as “inactive”.
For `O=C1CC(Cc2ccccc2)C(=O)N1CCc1ccc2c(c1)OCO2` (stereo unspecified), the Potency was “inactive”.
With `O=C(CN1C(=O)C(=O)c2ccccc21)NC1CCCCC1` the Potency was active: 23.1 µM.
In the case of `CCN1C(=O)[C@@H]2[C@@H](c3ccc(-c4ccc(OC)cc4)c(OC)c3)N3CCC[C@@]3(C(=O)OC)[C@@H]2C1=O`, the Potency is reported as inconclusive [inhibitor, single point].
In the case of `Cc1cc(N2CCN(C)CC2)nc2ccc(NC(=O)c3ccc(C(C)(C)C)cc3)cc12`, the Potency is reported as active: 4.61 µM.
With `CN(CCCC(=O)NCc1ccc2c(c1)OCO2)S(=O)(=O)c1ccc([N+](=O)[O-])cc1` the Potency was active: 23.1 µM.
In the case of `COc1ccc(-c2nn(CCC#N)cc2C=C(C#N)C#N)cc1`, the Potency is reported as “inactive”.
With `COc1ccccc1C1=NOC(Cn2c(NCCCO)nc3c2c(=O)n(C)c(=O)n3C)C1` (stereo unspecified) the Potency was inconclusive [inhibitor, partial curve].
With `CC(C)NS(=O)(=O)c1ccc(OCC(=O)Nc2cccc(F)c2)cc1` the Potency was “inactive”.
For `CN(C(=O)CSc1nc2ccccc2s1)c1c(N)n(Cc2ccccc2)c(=O)[nH]c1=O`, the Potency was “inactive”.
In the case of `CC1(C)C(=O)Nc2ccccc2N1C(=O)COC(=O)COc1ccc(C#N)cc1`, the Potency is reported as “inactive”.
With `C[C@H](CO)N1C[C@H](C)[C@@H](CN(C)Cc2ccncc2)Oc2c(NS(=O)(=O)c3cn(C)cn3)cccc2C1=O` the Potency was “inactive”.
With `CCOC(=O)[C@H](CS)NCCN[C@@H](CS)C(=O)OCC` the Potency was “inactive”.
In the case of `COc1cc(/C=C2\C(=O)ON=C2c2ccccc2)cc(Cl)c1O`, the Potency is reported as active: 18.4 µM.
With `CC1CC(C)CN(C(=O)COC(=O)c2ccc(S(=O)(=O)N(C)c3ccccc3)cc2)C1` (stereo unspecified) the Potency was inconclusive [inhibitor, single point].
With `O=C(NCc1ccccc1F)c1ccc(S(=O)(=O)Nc2cccc(C(F)(F)F)c2)cc1` the activity change, negative = growth inhibition was inconclusive: -34.4% [inhibitor].
With `CCN(CC)CCn1c2c(c(SCC(=O)Nc3ccc(C)c(F)c3)nc1=O)CCC2` the Potency was “inactive”.
In the case of `C=CCn1c(SCc2c(C)noc2C)nc2sc3c(c2c1=O)CCCC3`, the Potency is reported as inconclusive [inhibitor, single point].
In the case of `COc1ccc(Cn2c(=O)n(-c3ccc(F)c(Cl)c3)c(=O)c3c2c2cc(OC)ccc2n3C)cc1`, the activity change, negative = growth inhibition is reported as inconclusive: -14.6% [inhibitor].
With `O=C1N=C(N2CCCCC2)S/C1=C\c1ccc(Cl)cc1` the Potency was inconclusive [inhibitor, partial curve, poor fit].
With `Cc1nc2cnc(Oc3cccc(Cl)c3)nc2n(CCC#N)c1=O` the Potency was inconclusive [inhibitor, single point].
For `CSCCC(C(=O)Nc1c(C)cccc1C)n1c(-c2cnc(C)cn2)nc2ccccc21` (stereo unspecified), the Potency was active: 16.4 µM.
